Assay results: the supplement of paper PMC8728848
The other results are listed elsewhere or left out.

Key:
Assay in all cases: glycan array binding signal (z-score within array); higher = stronger binding
Conditions in all cases: glycan notation: IUPAC condensed, linker removed
[1] = target: Man(a1-3)[Man(a1-6)]Man(b1-4)GlcNAc(b1-4)GlcNAc
In short: (§1)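 Glycan array data were curated from 3228 arrays in the Consortium for Functional Glycomics database and kept only where the protein sequence was available. Glycan names were converted to IUPAC-condensed notation, and columns mapping to the same glycan were averaged. The binding signal is a within-array Z-score, averaged across arrays of the same protein sequence at different concentrations or buffers and across linkers. Negative Z-scores can be read as non-binding.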

[2] = target: Man(a1-3)[Man(a1-6)]Man(b1-4)GlcNAc(b1-4)[Fuc(a1-6)]GlcNAc
In short: as §1

[3] = target: Man(a1-6)Man
In short: as §1

[4] = target: Man(b1-4)GlcNAc
In short: as §1

[5] = target: MurNAc(b1-4)GlcNAc
In short: as §1

[6] = target: Neu5Ac(a2-3)Gal
In short: as §1

[7] = target: Neu5Ac(a2-3)Gal(b1-3)GalNAc
In short: as §1

[8] = target: Neu5Ac(a2-3)Gal(b1-3)GalNAc(b1-3)Gal(a1-4)Gal(b1-4)Glc
In short: as §1

[9] = target: Neu5Ac(a2-3)Gal(b1-3)GalNAc(b1-4)[Neu5Ac(a2-3)]Gal(b1-4)Glc
In short: as §1

[10] = target: Neu5Ac(a2-3)Gal(b1-3)GalNAc(b1-4)[Neu5Ac(a2-8)Neu5Ac(a2-3)]Gal(b1-4)Glc
In short: as §1

[11] = target: Neu5Ac(a2-3)Gal(b1-3)GalNAc6S
In short: as §1

[12] = target: Neu5Ac(a2-3)Gal(b1-3)GlcNAc
In short: as §1

[13] = target: Neu5Ac(a2-3)Gal(b1-3)GlcNAc(b1-2)Man
In short: as §1

[14] = target: Neu5Ac(a2-3)Gal(b1-3)GlcNAc(b1-2)Man(a1-3)[GlcNAc(b1-4)][Neu5Ac(a2-3)Gal(b1-3)GlcNAc(b1-2)Man(a1-6)]Man(b1-4)GlcNAc(b1-4)GlcNAc
In short: as §1

[15] = target: Neu5Ac(a2-3)Gal(b1-3)GlcNAc(b1-2)Man(a1-3)[Neu5Ac(a2-3)Gal(b1-3)GlcNAc(b1-2)Man(a1-6)]Man(b1-4)GlcNAc(b1-4)GlcNAc
In short: as §1

[16] = target: Neu5Ac(a2-3)Gal(b1-3)GlcNAc(b1-2)[Neu5Ac(a2-3)Gal(b1-3)GlcNAc(b1-4)]Man(a1-6)[Neu5Ac(a2-3)Gal(b1-3)GlcNAc(b1-2)Man(a1-3)]Man(b1-4)GlcNAc(b1-4)GlcNAc
In short: as §1

[17] = target: Neu5Ac(a2-3)Gal(b1-3)GlcNAc(b1-3)Gal(b1-3)GlcNAc
In short: as §1

[18] = target: Neu5Ac(a2-3)Gal(b1-3)GlcNAc(b1-3)Gal(b1-4)GlcNAc
In short: as §1

[19] = target: Neu5Ac(a2-3)Gal(b1-3)GlcNAc(b1-3)GalNAc
In short: as §1

[20] = target: Neu5Ac(a2-3)Gal(b1-3)GlcNAc(b1-4)Gal(b1-4)Glc
In short: as §1

[21] = target: Neu5Ac(a2-3)Gal(b1-3)GlcNAc(b1-6)GalNAc
In short: as §1

[22] = target: Neu5Ac(a2-3)Gal(b1-3)GlcNAc6S
In short: as §1

[23] = target: Neu5Ac(a2-3)Gal(b1-3)[Fuc(a1-4)]GlcNAc
In short: as §1

[24] = target: Neu5Ac(a2-3)Gal(b1-3)[Fuc(a1-4)]GlcNAc(b1-3)Gal(b1-3)[Fuc(a1-4)]GlcNAc
In short: as §1

[25] = target: Neu5Ac(a2-3)Gal(b1-3)[Fuc(a1-4)]GlcNAc(b1-3)Gal(b1-4)[Fuc(a1-3)]GlcNAc
In short: as §1

[26] = target: Neu5Ac(a2-3)Gal(b1-3)[GlcNAc(b1-6)]GalNAc
In short: as §1

[27] = target: Neu5Ac(a2-3)Gal(b1-3)[Neu5Ac(a2-6)]GalNAc
In short: as §1

[28] = target: Neu5Ac(a2-3)Gal(b1-3)[Neu5Ac(a2-6)]GlcNAc(b1-3)[Fuc(a1-3)[Gal(b1-4)]GlcNAc(b1-6)]Gal(b1-4)Glc
In short: as §1

[29] = target: Neu5Ac(a2-3)Gal(b1-3)]Neu5Ac(a2-3)Gal(b1-4)]GlcNAc
In short: as §1

[30] = target: Neu5Ac(a2-3)Gal(b1-4)Glc
In short: as §1

[31] = target: Neu5Ac(a2-3)Gal(b1-4)GlcNAc
In short: as §1

[32] = target: Neu5Ac(a2-3)Gal(b1-4)GlcNAc(b1-2)Man
In short: as §1

[33] = target: Neu5Ac(a2-3)Gal(b1-4)GlcNAc(b1-2)Man(a1-3)[GlcNAc(b1-4)][Neu5Ac(a2-3)Gal(b1-4)GlcNAc(b1-2)Man(a1-6)]Man(b1-4)GlcNAc(b1-4)GlcNAc
In short: as §1

[34] = target: Neu5Ac(a2-3)Gal(b1-4)GlcNAc(b1-2)Man(a1-3)[Neu5Ac(a2-3)Gal(b1-4)GlcNAc(b1-2)Man(a1-6)]Man(b1-4)GlcNAc(b1-4)GlcNAc
In short: as §1

[35] = target: Neu5Ac(a2-3)Gal(b1-4)GlcNAc(b1-2)Man(a1-3)[Neu5Ac(a2-3)Gal(b1-4)GlcNAc(b1-2)Man(a1-6)]Man(b1-4)GlcNAc(b1-4)[Fuc(a1-6)]GlcNAc
In short: as §1

[36] = target: Neu5Ac(a2-3)Gal(b1-4)GlcNAc(b1-2)Man(a1-3)[Neu5Ac(a2-6)Gal(b1-4)GlcNAc(b1-2)Man(a1-6)]Man(b1-4)GlcNAc(b1-4)GlcNAc
In short: as §1

[37] = target: Neu5Ac(a2-3)Gal(b1-4)GlcNAc(b1-2)[Neu5Ac(a2-3)Gal(b1-4)GlcNAc(b1-2)]Man(a1-6)[Neu5Ac(a2-3)Gal(b1-4)GlcNAc(b1-2)Man(a1-3)][GlcNAc(b1-4)]Man(b1-4)GlcNAc(b1-4)GlcNAc
In short: as §1

[38] = target: Neu5Ac(a2-3)Gal(b1-4)GlcNAc(b1-2)[Neu5Ac(a2-3)Gal(b1-4)GlcNAc(b1-4)]Man(a1-3)[GlcNAc(b1-4)][Neu5Ac(a2-3)Gal(b1-4)GlcNAc(b1-2)[Neu5Ac(a2-3)Gal(b1-4)GlcNAc(b1-6)]Man(a1-6)]Man(b1-4)GlcNAc(b1-4)GlcNAc
In short: as §1

[39] = target: Neu5Ac(a2-3)Gal(b1-4)GlcNAc(b1-2)[Neu5Ac(a2-3)Gal(b1-4)GlcNAc(b1-4)]Man(a1-3)[GlcNAc(b1-4)][Neu5Ac(a2-3)Gal(b1-4)GlcNAc(b1-4)Man(a1-6)]Man(b1-4)GlcNAc(b1-4)GlcNAc
In short: as §1

[40] = target: Neu5Ac(a2-3)Gal(b1-4)GlcNAc(b1-2)[Neu5Ac(a2-3)Gal(b1-4)GlcNAc(b1-6)]Man(a1-6)[Neu5Ac(a2-3)Gal(b1-4)GlcNAc(b1-2)Man(a1-3)]Man(b1-4)GlcNAc(b1-4)GlcNAc
In short: as §1

[41] = target: Neu5Ac(a2-3)Gal(b1-4)GlcNAc(b1-2)[Neu5Ac(a2-3)Gal(b1-4)GlcNAc(b1-6)]Man(a1-6)[Neu5Ac(a2-3)Gal(b1-4)GlcNAc(b1-2)Man(a1-3)][GlcNAc(b1-4)]Man(b1-4)GlcNAc(b1-4)GlcNAc
In short: as §1

[42] = target: Neu5Ac(a2-3)Gal(b1-4)GlcNAc(b1-3)Gal
In short: as §1

[43] = target: Neu5Ac(a2-3)Gal(b1-4)GlcNAc(b1-3)Gal(b1-3)GlcNAc
In short: as §1

[44] = target: Neu5Ac(a2-3)Gal(b1-4)GlcNAc(b1-3)Gal(b1-4)GlcNAc
In short: as §1

[45] = target: Neu5Ac(a2-3)Gal(b1-4)GlcNAc(b1-3)Gal(b1-4)GlcNAc(b1-2)Man(a1-3)[Neu5Ac(a2-3)Gal(b1-4)GlcNAc(b1-3)Gal(b1-4)GlcNAc(b1-2)Man(a1-6)]Man(b1-4)GlcNAc(b1-4)GlcNAc
In short: as §1

B1: rMpL (Macrolepiota procera) (protein)
chain: MSTQVSSGRTYKITNVIAGTVIDLSGEDNKSIIGYPYHSGKNQQWTFNWTGKAWTLRSASSGSYLGIEGTPAGGTRLVAVNDPFEWHIWRDEANENAFRIFVPFTNYNLDLSGYGDTTPGTPVQLWWTWEGLHQTWTIDRP
glycan array binding signal (z-score) [1]: -0.292
glycan array binding signal (z-score) [2]: -0.261
glycan array binding signal (z-score) [3]: -0.254
glycan array binding signal (z-score) [4]: -0.261
glycan array binding signal (z-score) [5]: -0.365
glycan array binding signal (z-score) [6]: -0.389
glycan array binding signal (z-score) [7]: -0.292
glycan array binding signal (z-score) [8]: -0.277
glycan array binding signal (z-score) [9]: -0.276
glycan array binding signal (z-score) [10]: -0.341
glycan array binding signal (z-score) [11]: -0.375
glycan array binding signal (z-score) [12]: -0.277
glycan array binding signal (z-score) [13]: -0.267
glycan array binding signal (z-score) [14]: -0.225
glycan array binding signal (z-score) [15]: 0.052
glycan array binding signal (z-score) [16]: -0.283
glycan array binding signal (z-score) [17]: -0.336
glycan array binding signal (z-score) [18]: -0.348
glycan array binding signal (z-score) [19]: -0.261
glycan array binding signal (z-score) [20]: -0.368
glycan array binding signal (z-score) [21]: -0.264
glycan array binding signal (z-score) [22]: -0.081
glycan array binding signal (z-score) [23]: -0.34
glycan array binding signal (z-score) [24]: -0.447
glycan array binding signal (z-score) [25]: -0.207
glycan array binding signal (z-score) [26]: -0.356
glycan array binding signal (z-score) [27]: -0.37
glycan array binding signal (z-score) [28]: -0.268
glycan array binding signal (z-score) [29]: -0.282
glycan array binding signal (z-score) [30]: -0.224
glycan array binding signal (z-score) [31]: -0.817
glycan array binding signal (z-score) [32]: -0.107
glycan array binding signal (z-score) [33]: -0.305
glycan array binding signal (z-score) [34]: -0.386
glycan array binding signal (z-score) [35]: -0.223
glycan array binding signal (z-score) [36]: -0.371
glycan array binding signal (z-score) [37]: -0.349
glycan array binding signal (z-score) [38]: -0.348
glycan array binding signal (z-score) [39]: -0.38
glycan array binding signal (z-score) [40]: -0.276
glycan array binding signal (z-score) [41]: -0.377
glycan array binding signal (z-score) [42]: -0.412
glycan array binding signal (z-score) [43]: -0.359
glycan array binding signal (z-score) [44]: -0.278
glycan array binding signal (z-score) [45]: 0.186
